The values that follow come from article PMC4336329 (PLoS ONE, 2015).

Each structure is given as a SMILES string. Screen size: about 310,000 compounds; about 14,000 (4.5%) showed an effect of 50% or more. The effect is printed as a negative number. This is one part of the list.
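Note: peak tail current of the secondary pulse compared with the same well before compound.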

Sequence of human ether-à-go-go-related gene (hERG) potassium channel (Q12809 whole entry, looked up): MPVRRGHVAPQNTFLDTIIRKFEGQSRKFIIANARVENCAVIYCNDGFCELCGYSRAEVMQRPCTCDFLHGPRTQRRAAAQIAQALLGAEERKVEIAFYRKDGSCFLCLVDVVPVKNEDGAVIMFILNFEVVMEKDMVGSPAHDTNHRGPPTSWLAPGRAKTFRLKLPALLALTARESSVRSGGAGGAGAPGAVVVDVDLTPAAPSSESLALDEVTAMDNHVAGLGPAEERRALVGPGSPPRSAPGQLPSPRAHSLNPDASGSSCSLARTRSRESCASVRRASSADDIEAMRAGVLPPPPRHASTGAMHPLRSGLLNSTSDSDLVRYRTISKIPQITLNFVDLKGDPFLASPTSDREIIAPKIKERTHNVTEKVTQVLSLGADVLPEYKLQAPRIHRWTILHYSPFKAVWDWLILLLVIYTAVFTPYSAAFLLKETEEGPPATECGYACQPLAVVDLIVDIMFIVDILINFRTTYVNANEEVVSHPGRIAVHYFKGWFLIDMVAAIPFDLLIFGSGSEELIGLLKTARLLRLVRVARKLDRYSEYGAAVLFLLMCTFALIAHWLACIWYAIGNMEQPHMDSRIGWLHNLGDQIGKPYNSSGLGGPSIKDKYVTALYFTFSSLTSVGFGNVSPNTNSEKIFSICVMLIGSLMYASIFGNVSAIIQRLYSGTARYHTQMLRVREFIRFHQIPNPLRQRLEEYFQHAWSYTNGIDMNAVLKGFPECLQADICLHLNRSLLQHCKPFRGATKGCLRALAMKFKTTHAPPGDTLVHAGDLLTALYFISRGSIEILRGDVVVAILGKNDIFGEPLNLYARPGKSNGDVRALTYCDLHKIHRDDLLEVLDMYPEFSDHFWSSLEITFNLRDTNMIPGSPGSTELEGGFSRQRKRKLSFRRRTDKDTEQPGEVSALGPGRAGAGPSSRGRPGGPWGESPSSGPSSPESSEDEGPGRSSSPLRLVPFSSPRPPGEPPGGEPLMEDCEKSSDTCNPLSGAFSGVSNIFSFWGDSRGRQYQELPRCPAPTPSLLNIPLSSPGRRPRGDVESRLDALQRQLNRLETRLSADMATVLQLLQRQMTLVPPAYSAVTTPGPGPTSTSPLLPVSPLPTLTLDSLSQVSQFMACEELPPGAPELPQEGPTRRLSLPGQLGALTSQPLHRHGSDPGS

The assay has as its target human ether-à-go-go-related gene (hERG) potassium channel (human, UniProt Q12809). Kind of assay: primary screen, population patch clamp on CHO cells stably expressing hERG.
As to `Cc1ccc(NC(=O)c2nc[nH]c2C(=O)N2CCC(C)CC2)cc1`, the “hERG current change (%, negative = inhibition) at 10uM” value was -0.182%.

As for `c1ccc2sc(Cc3nnc4n3CCCCC4)nc2c1`, the “hERG current change (%, negative = inhibition) at 10uM” value is reported as -1.47%.

Turning to `Cn1nc(-c2ccc(OCC(=O)Nc3cccnc3)cc2)c2ccccc2c1=O`, the “hERG current change (%, negative = inhibition) at 10uM” value was -11.7%.

With `CCCCc1nc(SCC(=O)N2CCCCC2)c2c(=O)n(C)c(=O)n(C)c2n1`, the “hERG current change (%, negative = inhibition) at 10uM” value is given as -31.5%.

Regarding `Cc1ccc2c(c1)N(CCCC(=O)NCCC1=CCCCC1)C(=O)CO2`, the “hERG current change (%, negative = inhibition) at 10uM” value is on record as -9.81%.

For the compound `COc1ccc(C(=O)Nc2ccc(S(=O)(=O)N3CCCCC3)cc2)cc1`, the “hERG current change (%, negative = inhibition) at 10uM” value was -8.51%.

Turning to `CCc1cccc2sc(NC(=O)C3CC3)nc12`, the “hERG current change (%, negative = inhibition) at 10uM” value was -17.8%.

Regarding `COCc1[nH]nc2c1C1(C(=O)Nc3ccc(F)cc31)C(C#N)=C(N)O2` (centres unmarked), the “hERG current change (%, negative = inhibition) at 10uM” value is -21.5%.

Turning to `CC1(c2nnc(Cc3ccccc3)o2)CC(c2cccc(Cl)c2)=NO1` (centres unmarked), the “hERG current change (%, negative = inhibition) at 10uM” value stood at 2.8%.

Take `COc1ccc(C(C(=O)Nc2ccc(C(C)C)cc2)N(Cc2ccco2)C(=O)CC2NC(=O)NC2=O)cc1` (centres unmarked): the “hERG current change (%, negative = inhibition) at 10uM” value is -13.4%.

Turning to `O=C(CSc1ccc(F)cc1)N1CCN(S(=O)(=O)c2ccccc2)CC1`, the “hERG current change (%, negative = inhibition) at 10uM” value is recorded as -8.51%.

As for `Clc1cccc(CN2CCN(c3ncccn3)CC2)c1Cl`, the “hERG current change (%, negative = inhibition) at 10uM” value was -14.7%.

Regarding `S=c1[nH]nc(-c2ccncc2)n1Cc1ccccc1`, the “hERG current change (%, negative = inhibition) at 10uM” value is recorded as 8.95%.

On to `COc1ccccc1Nc1nc(N)nc(CSc2nccn2C)n1`, for which the “hERG current change (%, negative = inhibition) at 10uM” value is reported as -3.65%.

In the case of `CS(=O)(=O)c1ccc(NS(=O)(=O)c2ccc(Cl)c(C(=O)NCc3ccco3)c2)cc1`, the “hERG current change (%, negative = inhibition) at 10uM” value was 9.88%.

In the case of `CC(C)N1CC(C(=O)Nc2ccc(F)c(Cl)c2)CC1=O` (centres unmarked), the “hERG current change (%, negative = inhibition) at 10uM” value was 10.8%.

In the case of `COc1ccccc1OCC(=O)N/N=C1\CCc2ccccc21`, the “hERG current change (%, negative = inhibition) at 10uM” value is -14%.

Turning to `COc1ccccc1C(=O)NNC(=O)c1ccc(NS(=O)(=O)c2cccs2)cc1`, the “hERG current change (%, negative = inhibition) at 10uM” value is reported as 27.5%.

`Cc1cccc(C)c1NC(=O)CNCC(=O)Nc1c(C)cccc1C.Cl`: the “hERG current change (%, negative = inhibition) at 10uM” value is recorded as 17%.

Take `O=c1cccc2c1c1cc[nH]c3ccc(=O)n2c31`: the “hERG current change (%, negative = inhibition) at 10uM” value stood at 18.2%.

With `COc1cc(NC(=S)NCCN2CCOCC2)cc(OC)c1OC`, the “hERG current change (%, negative = inhibition) at 10uM” value came out at 16.2%.

Regarding `CCOP(=O)(c1ccc(N(C)C)cc1)C(O)c1ccncc1` (centres unmarked), the “hERG current change (%, negative = inhibition) at 10uM” value amounted to 10.8%.

For `O=[N+]([O-])c1ccc2nc(-c3ccccc3[N+](=O)[O-])[nH]c2c1`, the “hERG current change (%, negative = inhibition) at 10uM” value was 20.2%.

Take `O=C(CN1CCC(C(=O)c2cccc(Cl)c2)CC1)Nc1ccc(C(=O)O)cc1`: the “hERG current change (%, negative = inhibition) at 10uM” value stood at 16%.

Turning to `CC(C)C1N(c2ccccc2)C(N)=C(C#N)C1(C#N)C#N` (centres unmarked), the “hERG current change (%, negative = inhibition) at 10uM” value is on record as -6.43%.

Consider `O=C(NCc1ccccc1)NC1(C(=O)N2CCCC2)CCCCC1`, for which the “hERG current change (%, negative = inhibition) at 10uM” value is listed as -1.81%.

In the case of `NC(=O)c1cc2ccccc2oc1=NCc1ccccc1`, the “hERG current change (%, negative = inhibition) at 10uM” value amounted to 3.33%.

Regarding `O=C(Cc1cccs1)N1CCN(c2ccccn2)CC1`, the “hERG current change (%, negative = inhibition) at 10uM” value is given as 5.77%.

As to `O=[N+]([O-])c1cccc(N(CC2CO2)S(=O)(=O)c2ccccc2)c1` (centres unmarked), the “hERG current change (%, negative = inhibition) at 10uM” value was -5.4%.

Turning to `CCn1nc(C(=O)Nc2ccccc2C)c(Cl)c1Cl`, the “hERG current change (%, negative = inhibition) at 10uM” value is 12.4%.

`COc1ccc(C(=O)Nc2cc(C)on2)cc1[N+](=O)[O-]`: the “hERG current change (%, negative = inhibition) at 10uM” value worked out at 14.4%.

In the case of `O=C(NCc1cccs1)c1cccc(N2CCCC2=O)c1`, the “hERG current change (%, negative = inhibition) at 10uM” value was 5.69%.

As for `Cc1cccc(NC(=O)c2c(C)cc(=O)oc2C)n1`, the “hERG current change (%, negative = inhibition) at 10uM” value worked out at 7.37%.

Turning to `Nc1c(C(=O)c2ccccc2)sc2snc(SCC(=O)c3ccccc3)c12`, the “hERG current change (%, negative = inhibition) at 10uM” value stood at 23.4%.

Regarding `O=C(CSc1oc(-c2ccco2)nc1S(=O)(=O)c1ccc(Cl)cc1)NCC1CCCO1` (centres unmarked), the “hERG current change (%, negative = inhibition) at 10uM” value is recorded as -41.3%.

`NS(=O)(=O)c1ccc(-c2ccc(/C=C3\SC(=S)N(C4CCS(=O)(=O)C4)C3=O)o2)cc1` (centres unmarked): the “hERG current change (%, negative = inhibition) at 10uM” value was determined as 10.8%.

`COc1ccc(C)cc1NC(=O)CN1CCN(S(=O)(=O)c2ccc3ccccc3c2)CC1`: the “hERG current change (%, negative = inhibition) at 10uM” value is reported as -0.107%.

On to `CC(O)C[NH+]=c1cc(-c2ccccc2)oc2ccc(Cl)cc12.F[B-](F)(F)F` (centres unmarked), for which the “hERG current change (%, negative = inhibition) at 10uM” value was -69.4%.

For the compound `O=C(NC1CCCCC1)C1(c2ccccc2)CC1(Cl)Cl` (centres unmarked), the “hERG current change (%, negative = inhibition) at 10uM” value is listed as 1.16%.

On to `CC(=O)Nc1ccc(C2(O)COc3ccccc3O2)cc1` (centres unmarked), for which the “hERG current change (%, negative = inhibition) at 10uM” value is 8.8%.

For the compound `COc1ccc(C2=NNC(=O)CC2)cc1`, the “hERG current change (%, negative = inhibition) at 10uM” value is reported as 19.7%.

With `CSCC[C@H](NC(=O)[C@H](Cc1ccccc1)n1c(=O)[nH]c2ccccc2c1=O)C(=O)N1CCC[C@@H]1C(=O)O`, the “hERG current change (%, negative = inhibition) at 10uM” value was 23.6%.

Take `Cn1c(=O)c2c(nc(CN3CCOCC3)n2CC(=O)c2ccccc2)n(C)c1=O`: the “hERG current change (%, negative = inhibition) at 10uM” value worked out at 7.1%.

With `O=C(NCCOc1ccc(Cl)cc1)c1ccco1`, the “hERG current change (%, negative = inhibition) at 10uM” value was -9.75%.
